Our source for the self-cleavage values is the RNAGym collection of RNA variant scans (doi:10.7554/elife.90254).

Read counts are not given, so values of variants with three or more changes are uncertain.

To fix the notation:
B1: LINE1-mini (parent)
chain: GGCAGAGCUCAACACAGCGUGGCAAAGUGGCUGUGGCUAGACUGCC

Variants of B1 are the subject of the data set. Nature of the data set: self-cleavage, relative activity (ratio to wild type); higher = more cleavage; in vitro, sequencing; the parent is a self-cleaving ribozyme.
For A12C C15U G21U C23U U34A G36C A41C, the self-cleavage is 0.01.

In the case of A12G C13U C15A C37U G44U, the self-cleavage was 0.03.

In the case of A11U G22A A24C G40A, the self-cleavage was 0.01.

As for A12G C42A G44A, the self-cleavage stood at 0.04.

Consider A11U G27A G29U G35U, for which the self-cleavage amounted to 0.01.

For the variant A11G G17U A41G, the self-cleavage is 0.01.

Consider A11U C18A G33U C37A, for which the self-cleavage came to 0.02.

For A11U C13G G19U, the self-cleavage came to 0.01.

Regarding A12C U34C G36A, the self-cleavage came to 0.03.

Take A12C A16U G29A: the self-cleavage turned out to be 0.

Take A11G C15A C23G: the self-cleavage amounted to 0.04.

A12C A39C C42G: the self-cleavage amounted to 0.03.

For the variant A11G G17C G29A, the self-cleavage was 0.01.

A12G G19A U32G: the self-cleavage was found to be 0.04.

Consider A12C G19U U38G A41C, for which the self-cleavage worked out at 0.

With A12G C13U G22U, the self-cleavage came out at 0.02.

A11U G19C A41U C42U: the self-cleavage was determined as 0.03.

As for A11U C23U U28C C42U, the self-cleavage was 0.02.

Turning to A12G G19C U34A G35C, the self-cleavage worked out at 0.01.

On to A12G C13A C42A, for which the self-cleavage stood at 0.01.

Consider A12G G19U A26G, for which the self-cleavage worked out at 0.09.

Take A11U U32G U34C G36C G40A: the self-cleavage amounted to 0.02.

Turning to A12G C18A G27A G36A, the self-cleavage is 0.03.

Consider A11G C13U A26C C31U G33A G40A, for which the self-cleavage is 0.

For the variant A11U C13U C37G, the self-cleavage amounted to 0.01.

On to A11U C31A G35A, for which the self-cleavage came to 0.02.

On to A12G G19C U32C G40A, for which the self-cleavage amounted to 0.04.

With A11G U32A C37G, the self-cleavage stood at 0.01.

With A11U A16G U28C U43A, the self-cleavage amounted to 0.

Turning to A12C C13A C45U, the self-cleavage came to 0.09.

On to A11U G19U A24U, for which the self-cleavage came out at 0.14.

Turning to A11G C15G A25U C31G, the self-cleavage was 0.

As for A11G G21U G29C G35U, the self-cleavage is 0.01.

For the variant A11U G19C A39C, the self-cleavage was 0.02.

A12C C15A U20A U28G: the self-cleavage came to 0.01.

With A12G A14U G29C C45U, the self-cleavage amounted to 0.01.

As for A11U G22A G27U C31U U34G, the self-cleavage came to 0.

Take A11U G17U U34C G44C C45A C46U: the self-cleavage worked out at 0.02.

As for A12C A14U U32A, the self-cleavage was found to be 0.05.

A12G C45A C46A: the self-cleavage was determined as 0.05.

Consider A11U U20A C23A U28A A39U U43C, for which the self-cleavage is 0.

As for A11U G27C C31G U34A, the self-cleavage came to 0.03.

Regarding A12G G22A G29A G40U, the self-cleavage came out at 0.02.

Take A12G A14C C15G G21U: the self-cleavage came out at 0.02.

Take A12C A16U A26U: the self-cleavage was found to be 0.02.

On to A12C C15A G27C G29A G33A A39G, for which the self-cleavage was 0.02.

On to A11U C15U C45G, for which the self-cleavage turned out to be 0.

On to A11G G22A C46G, for which the self-cleavage worked out at 0.02.

With A11U G44C C46U, the self-cleavage was 0.07.

Take A11G G21U A25C: the self-cleavage is 0.02.

In the case of A11U C15A G19U G27C, the self-cleavage is 0.01.

Turning to A11U C31A G36U, the self-cleavage came out at 0.01.

Regarding A12C C31G G40C, the self-cleavage stood at 0.02.

As for A12G A16C G27C G44U, the self-cleavage worked out at 0.1.

As for A12C A16C C23U, the self-cleavage was 0.07.

For A12G G19U C37A, the self-cleavage stood at 0.03.

Turning to A12C A16G G21U U28G, the self-cleavage amounted to 0.01.

Take A12C A25C U34A G36U C46G: the self-cleavage was 0.03.

Turning to A12G C18G U20C, the self-cleavage came out at 0.01.

Regarding A12G A14U A26G U32C, the self-cleavage was found to be 0.

On to A11G U28C G30U, for which the self-cleavage stood at 0.01.

As to A12G C13A A26G G30U, the self-cleavage was found to be 0.01.

In the case of A11U U28G G30C A39U, the self-cleavage came out at 0.01.

With A11U A12G C15U C23G G29A U32G, the self-cleavage worked out at 0.

Take A11U G33C A41G C45U: the self-cleavage worked out at 0.03.

In the case of A12G A24G C31U, the self-cleavage stood at 0.1.

Consider A12C C15A A16C U20G G33U C42U, for which the self-cleavage turned out to be 0.01.

On to A11U G21U A26C, for which the self-cleavage worked out at 0.12.

In the case of A11G U28G G30U, the self-cleavage amounted to 0.07.

On to A11U G35U G36C C45G C46U, for which the self-cleavage amounted to 0.01.

A11U C13U G19C A24G U38G: the self-cleavage came out at 0.01.

On to A12C U28G C31A, for which the self-cleavage amounted to 0.02.

As for A11G C15G G30A, the self-cleavage came to 0.01.

As for A12C C42U C45U, the self-cleavage is 0.

For A11U G21U A41G, the self-cleavage is 0.1.

Consider A12G C31U U32A G44U, for which the self-cleavage was determined as 0.13.

Turning to A12G G17C G19A U32G G35A, the self-cleavage came out at 0.01.

With A11U G29C C42A, the self-cleavage came out at 0.01.

With A11U G17U G36U C46U, the self-cleavage came to 0.

A11G G27U A41U: the self-cleavage turned out to be 0.02.

Consider A12C A14U G29C, for which the self-cleavage was 0.04.

With A11G G17C A26U U38G G40C, the self-cleavage is 0.

For A11U C18A A39U, the self-cleavage is 0.01.

Take A12G A26G G30A G33U U34C G35U C42G: the self-cleavage was found to be 0.

As to A12C A14C G22U G33A U38A G44A C46U, the self-cleavage stood at 0.

For the variant A11U C13U G17A U20G A24C G35A, the self-cleavage is 0.02.

As for A11U C18A U20C C31A G40U, the self-cleavage stood at 0.01.

For A12G A24U U34G, the self-cleavage was 0.01.

For the variant A12C A14C G29A, the self-cleavage was determined as 0.05.

In the case of A11U U28A C31U, the self-cleavage came out at 0.05.

A12C A14G A26G: the self-cleavage worked out at 0.01.

Take A11G G22A A41U: the self-cleavage was determined as 0.

As for A12C C13A G40U, the self-cleavage was 0.13.

In the case of A11U U32A C42A G44U, the self-cleavage was found to be 0.01.

With A11G G35U G40C C46G, the self-cleavage was found to be 0.

As for A11U C13A C18A C37G, the self-cleavage was 0.01.

Regarding A11U G19A G40C, the self-cleavage amounted to 0.02.

For the variant A11G C18U G21A A24G U32A A39G A41U, the self-cleavage came to 0.01.

As to A12C G19U C31G, the self-cleavage was 0.01.

For the variant A12G G21A U28C U38G A41G, the self-cleavage is 0.

On to A12C A16U A24G G35A, for which the self-cleavage stood at 0.

For the variant A11G A24G G40C, the self-cleavage came to 0.01.

As for A12G A16U A25G G33U C45A C46G, the self-cleavage stood at 0.

With A11G C13A C15U A16C A26G G30A G33A C46G, the self-cleavage was determined as 0.02.

For the variant A11U A14G C42G, the self-cleavage worked out at 0.

Turning to A11G G22C A41G, the self-cleavage was determined as 0.

Regarding A11G U20C U43C, the self-cleavage was 0.01.

On to A12G C18G G19U G30A U32C C45G, for which the self-cleavage amounted to 0.01.

Regarding A11U C15G A16U, the self-cleavage was 0.02.

Regarding A12C A14U C23U U38C, the self-cleavage was determined as 0.02.

Consider A11G C15A G21A C46U, for which the self-cleavage was 0.02.

In the case of A11G G21U G36C G40A, the self-cleavage was 0.01.

Regarding A12G C23G G35U, the self-cleavage came to 0.01.

Regarding A11U G22A C45U, the self-cleavage amounted to 0.2.

Consider A12C C13U C46A, for which the self-cleavage amounted to 0.

In the case of A12C C15G C18A U20C G21C G22C A39U, the self-cleavage was 0.01.

Turning to A12C A24G G33A C45G, the self-cleavage came out at 0.01.

Regarding A11G G36C C45A, the self-cleavage was determined as 0.01.

A11U A12G A24U: the self-cleavage was determined as 0.01.

A11U A14U G30A G40C: the self-cleavage came to 0.04.

Consider A11G A16U U20G U34G U43C, for which the self-cleavage is 0.

For the variant A11U G40A A41U, the self-cleavage turned out to be 0.02.

A11G C18A U43A: the self-cleavage was determined as 0.01.

For A12C U28A U32C A41G, the self-cleavage amounted to 0.02.

Turning to A11U C15A C18U G22A C42A, the self-cleavage was found to be 0.02.

A11U C23G A41G C42A: the self-cleavage stood at 0.01.

Turning to A12G G21U G29C G36U, the self-cleavage amounted to 0.01.

For A11G C13A G30C G33U A39C, the self-cleavage came to 0.02.

Turning to A11U A14C U28G C45A, the self-cleavage is 0.01.

As for A12C U43G G44U, the self-cleavage was determined as 0.01.

Consider A11G G22C G36A, for which the self-cleavage was found to be 0.03.

A11U U28G G36U A41U: the self-cleavage is 0.

As for A11U G21U A24C U34A, the self-cleavage came out at 0.03.

Turning to A11G U20A U28A G35A, the self-cleavage came out at 0.02.

Turning to A11G U32G G36A, the self-cleavage is 0.01.

On to A12G G21A G33C, for which the self-cleavage was 0.02.

Turning to A11U G29C C46A, the self-cleavage came out at 0.05.

With A11U C18U C23G G29U, the self-cleavage worked out at 0.07.

Consider A12C G19A A24C, for which the self-cleavage was found to be 0.02.

For the variant A12G C18A G36C A41C U43A, the self-cleavage came out at 0.03.

As for A11U U20G A25U, the self-cleavage is 0.07.

As for A11G G22C G35A A41G, the self-cleavage was 0.01.

Consider A12C C13U C42G, for which the self-cleavage was 0.05.

A12C U34A G40U C46A: the self-cleavage stood at 0.

Consider A12G C15U G29C G30C, for which the self-cleavage was found to be 0.01.

Consider A11U C15A U34A C45A, for which the self-cleavage came out at 0.01.

As to A12G G17A A41U, the self-cleavage came out at 0.01.

Turning to A11U C13A G40U C42G, the self-cleavage turned out to be 0.05.

Turning to A11G C15U A25U, the self-cleavage worked out at 0.03.

Regarding A11U G27U G44A, the self-cleavage came out at 0.04.

As to A11U A24U C31G C37U, the self-cleavage was determined as 0.01.

Regarding A12C G22U G35U U38A, the self-cleavage came out at 0.02.

For A12G C13U G22A G33C A41G, the self-cleavage is 0.08.

Turning to A11G G21C G30C C46G, the self-cleavage worked out at 0.01.

Regarding A11U C31G C37U G40C, the self-cleavage came out at 0.

Turning to A11U A16C G40C, the self-cleavage was 0.01.

Consider A11U A12G G19A G21A G22C A26C, for which the self-cleavage worked out at 0.

As to A12G C13G C18U, the self-cleavage was found to be 0.01.

With A11G U20G G21U G36U, the self-cleavage came out at 0.02.

In the case of A11U A12U G35U, the self-cleavage is 0.05.

As for A12G G17A C37G U43G C45U, the self-cleavage was 0.01.

As for A11G C13U G21U U34G, the self-cleavage worked out at 0.01.

Turning to A12C U20C G29C C45U, the self-cleavage was determined as 0.02.

A12C G22A U28A C45U: the self-cleavage is 0.

On to A12G C13U G21C U34A C46U, for which the self-cleavage amounted to 0.02.

With A11U C13U G17A G44A, the self-cleavage is 0.02.

A11G C37A C45G: the self-cleavage was determined as 0.
